{"source": "the supplement of paper PMC8728848", "assay_in_all_cases": "glycan array binding signal (z-score within array); higher = stronger binding", "details_in_all_cases": "glycan notation: IUPAC condensed, linker removed", "key": {"[1]": {"target": "Neu5Ac(a2-3)Gal(b1-3)GlcNAc6S", "how_it_was_run": "(§1)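 Glycan array data came from 3228 arrays in the Consortium for Functional Glycomics database, and only arrays with an available protein sequence were kept. Glycan names were put into IUPAC-condensed notation, and columns mapping to the same glycan were averaged. The binding signal is a within-array Z-score, averaged across arrays of one protein sequence run at different concentrations or buffers and across linkers. A negative Z-score can be read as non-binding.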"}, "[2]": {"target": "Neu5Ac(a2-3)Gal(b1-3)[Fuc(a1-4)]GlcNAc", "how_it_was_run": "as §1"}, "[3]": {"target": "Neu5Ac(a2-3)Gal(b1-3)[Fuc(a1-4)]GlcNAc(b1-3)Gal(b1-3)[Fuc(a1-4)]GlcNAc", "how_it_was_run": "as §1"}, "[4]": {"target": "Neu5Ac(a2-3)Gal(b1-3)[Fuc(a1-4)]GlcNAc(b1-3)Gal(b1-4)[Fuc(a1-3)]GlcNAc", "how_it_was_run": "as §1"}, "[5]": {"target": "Neu5Ac(a2-3)Gal(b1-3)[GlcNAc(b1-6)]GalNAc", "how_it_was_run": "as §1"}, "[6]": {"target": "Neu5Ac(a2-3)Gal(b1-3)[Neu5Ac(a2-6)]GalNAc", "how_it_was_run": "as §1"}, "[7]": {"target": "Neu5Ac(a2-3)Gal(b1-3)[Neu5Ac(a2-6)]GlcNAc(b1-3)[Fuc(a1-3)[Gal(b1-4)]GlcNAc(b1-6)]Gal(b1-4)Glc", "how_it_was_run": "as §1"}, "[8]": {"target": "Neu5Ac(a2-3)Gal(b1-3)]Neu5Ac(a2-3)Gal(b1-4)]GlcNAc", "how_it_was_run": "as §1"}, "Neu5Ac(a2-3)Gal(b1-4)Glc": {"target": "Neu5Ac(a2-3)Gal(b1-4)Glc", "how_it_was_run": "as §1"}, "[9]": {"target": "Neu5Ac(a2-3)Gal(b1-4)GlcNAc", "how_it_was_run": "as §1"}, "[10]": {"target": "Neu5Ac(a2-3)Gal(b1-4)GlcNAc(b1-2)Man", "how_it_was_run": "as §1"}, "[11]": {"target": "Neu5Ac(a2-3)Gal(b1-4)GlcNAc(b1-2)Man(a1-3)[GlcNAc(b1-4)][Neu5Ac(a2-3)Gal(b1-4)GlcNAc(b1-2)Man(a1-6)]Man(b1-4)GlcNAc(b1-4)GlcNAc", "how_it_was_run": "as §1"}, "[12]": {"target": "Neu5Ac(a2-3)Gal(b1-4)GlcNAc(b1-2)Man(a1-3)[Neu5Ac(a2-3)Gal(b1-4)GlcNAc(b1-2)Man(a1-6)]Man(b1-4)GlcNAc(b1-4)GlcNAc", "how_it_was_run": "as §1"}, "[13]": {"target": "Neu5Ac(a2-3)Gal(b1-4)GlcNAc(b1-2)Man(a1-3)[Neu5Ac(a2-3)Gal(b1-4)GlcNAc(b1-2)Man(a1-6)]Man(b1-4)GlcNAc(b1-4)[Fuc(a1-6)]GlcNAc", "how_it_was_run": "as §1"}, "[14]": {"target": "Neu5Ac(a2-3)Gal(b1-4)GlcNAc(b1-2)Man(a1-3)[Neu5Ac(a2-6)Gal(b1-4)GlcNAc(b1-2)Man(a1-6)]Man(b1-4)GlcNAc(b1-4)GlcNAc", "how_it_was_run": "as §1"}, "[15]": {"target": "Neu5Ac(a2-3)Gal(b1-4)GlcNAc(b1-2)[Neu5Ac(a2-3)Gal(b1-4)GlcNAc(b1-4)]Man(a1-3)[GlcNAc(b1-4)][Neu5Ac(a2-3)Gal(b1-4)GlcNAc(b1-2)[Neu5Ac(a2-3)Gal(b1-4)GlcNAc(b1-6)]Man(a1-6)]Man(b1-4)GlcNAc(b1-4)GlcNAc", "how_it_was_run": "as §1"}, "[16]": {"target": "Neu5Ac(a2-3)Gal(b1-4)GlcNAc(b1-2)[Neu5Ac(a2-3)Gal(b1-4)GlcNAc(b1-4)]Man(a1-3)[GlcNAc(b1-4)][Neu5Ac(a2-3)Gal(b1-4)GlcNAc(b1-4)Man(a1-6)]Man(b1-4)GlcNAc(b1-4)GlcNAc", "how_it_was_run": "as §1"}, "[17]": {"target": "Neu5Ac(a2-3)Gal(b1-4)GlcNAc(b1-2)[Neu5Ac(a2-3)Gal(b1-4)GlcNAc(b1-6)]Man(a1-6)[Neu5Ac(a2-3)Gal(b1-4)GlcNAc(b1-2)Man(a1-3)][GlcNAc(b1-4)]Man(b1-4)GlcNAc(b1-4)GlcNAc", "how_it_was_run": "as §1"}, "[18]": {"target": "Neu5Ac(a2-3)Gal(b1-4)GlcNAc(b1-3)Gal", "how_it_was_run": "as §1"}, "[19]": {"target": "Neu5Ac(a2-3)Gal(b1-4)GlcNAc(b1-3)Gal(b1-3)GlcNAc", "how_it_was_run": "as §1"}, "[20]": {"target": "Neu5Ac(a2-3)Gal(b1-4)GlcNAc(b1-3)Gal(b1-4)GlcNAc", "how_it_was_run": "as §1"}, "[21]": {"target": "Neu5Ac(a2-3)Gal(b1-4)GlcNAc(b1-3)Gal(b1-4)GlcNAc(b1-2)Man(a1-3)[Neu5Ac(a2-3)Gal(b1-4)GlcNAc(b1-3)Gal(b1-4)GlcNAc(b1-2)Man(a1-6)]Man(b1-4)GlcNAc(b1-4)GlcNAc", "how_it_was_run": "as §1"}}, "note": "This is one part of the list.", "data": [{"binder": "LecB LY19 (Pseudomonas aeruginosa) (protein) MATQGVFTLPANTQFGVTAFANSAGTQTVNVQVNNETVATFTGQSTNNGIIGSKVLNSGGGGKVQILVSVNGRSSDLVSAQVILANELNFALVGSEDSTDNDYNDAVVVINWPLG", "values": [{"measurement": "glycan array binding signal (z-score)", "setting": "[1]", "result": -0.501}, {"measurement": "glycan array binding signal (z-score)", "setting": "[2]", "result": 2.09}, {"measurement": "glycan array binding signal (z-score)", "setting": "[3]", "result": 2.39}, {"measurement": "glycan array binding signal (z-score)", "setting": "[4]", "result": 2.17}, {"measurement": "glycan array binding signal (z-score)", "setting": "[5]", "result": -0.554}, {"measurement": "glycan array binding signal (z-score)", "setting": "[6]", "result": -0.481}, {"measurement": "glycan array binding signal (z-score)", "setting": "[7]", "result": 0.082}, {"measurement": "glycan array binding signal (z-score)", "setting": "[8]", "result": -0.542}, {"measurement": "glycan array binding signal (z-score)", "setting": "Neu5Ac(a2-3)Gal(b1-4)Glc", "result": -0.516}, {"measurement": "glycan array binding signal (z-score)", "setting": "[9]", "result": -0.555}, {"measurement": "glycan array binding signal (z-score)", "setting": "[10]", "result": -0.515}, {"measurement": "glycan array binding signal (z-score)", "setting": "[11]", "result": -0.548}, {"measurement": "glycan array binding signal (z-score)", "setting": "[12]", "result": -0.558}, {"measurement": "glycan array binding signal (z-score)", "setting": "[13]", "result": 0.326}, {"measurement": "glycan array binding signal (z-score)", "setting": "[14]", "result": -0.393}, {"measurement": "glycan array binding signal (z-score)", "setting": "[15]", "result": -0.555}, {"measurement": "glycan array binding signal (z-score)", "setting": "[16]", "result": -0.555}, {"measurement": "glycan array binding signal (z-score)", "setting": "[17]", "result": -0.55}, {"measurement": "glycan array binding signal (z-score)", "setting": "[18]", "result": -0.006}, {"measurement": "glycan array binding signal (z-score)", "setting": "[19]", "result": -0.556}, {"measurement": "glycan array binding signal (z-score)", "setting": "[20]", "result": -0.547}, {"measurement": "glycan array binding signal (z-score)", "setting": "[21]", "result": -0.522}]}]}
